In patent US20240352130A1 (CHILDREN S HOSPITAL OF PHILADELPHIA, published 2024) one finds Kd data, which are given here for one molecule.

By Kd is commonly meant the free concentration of one partner at which half of the binding sites on the other are occupied at equilibrium, for simple one-to-one binding. High values mean a looser complex, low ones a tighter complex.

The target in this experiment is T1, PHOX2B (43-51) A*24:02 MHC complex (human).
T1 construct: also called PHOX2B (43-51) complex; PHOX2B target pMHC
Description: BLI (BLItz), biotinylated scFv on streptavidin sensor, soluble pMHC 200 nM.

B1: Clone 302 (RU141-302) scFv (scFv)
scFv: SRNGGDGQSVLTQPPSVSVSPGQTASITCSGDKLGDKYACWYQQKPGQSPVLVIYQDSKRPSGIPERFSGSNSGNTATLTISGTQAMDEADYYCQAWDMVGSWTVVFGTGTKVTVSSQTGGSGGGGSGGGGSGGGGS[about 100 residues cut from this listing]PRFDGQWDNAFDIWGQGTMVTVSSS
B1 yielded a Kd of 170 nM.
